Paper PMC12136788
The other results are listed elsewhere or left out.

T1: UNK ZnF1-6 (called full-length) (human, UniProt Q9C0B0 30-357)
T1 sequence: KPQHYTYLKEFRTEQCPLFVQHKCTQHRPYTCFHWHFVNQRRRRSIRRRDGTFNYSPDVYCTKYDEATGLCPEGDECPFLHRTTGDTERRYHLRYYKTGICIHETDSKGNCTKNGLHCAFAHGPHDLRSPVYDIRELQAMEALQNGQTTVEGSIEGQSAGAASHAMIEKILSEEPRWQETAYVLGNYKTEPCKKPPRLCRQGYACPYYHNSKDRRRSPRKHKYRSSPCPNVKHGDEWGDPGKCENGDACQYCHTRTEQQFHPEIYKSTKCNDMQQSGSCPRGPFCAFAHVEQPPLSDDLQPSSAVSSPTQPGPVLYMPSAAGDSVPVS

B1: ENSG00000114744:stop:overlap|stop_codon|ENSG00000114744|stop_codon|NA|stop_codon (ssRNA)
RNA: GGGAGUUCUACAGUCCGACGAUCAACAAGCAUUGGAAGAGAUGAAGACAAAUCACUGUAGGAGAGUUGUUCGCAACAUCAAGUAGUACCAGUUUUAAGGUUUUAAUUCAUUUGAAUCACUUAUGAAUUGAUGAUAUACAGCAACAACAGAGGAUUGAGCAUCA
B2: ENSG00000124766:be:win_3051|3pUTR|ENSG00000124766|bound_else_gene|NA|bound_elsewhere_windowed (ssRNA)
RNA: GGGAGUUCUACAGUCCGACGAUCAGGGCUAGAGUUUUAACUUUUAAUUUUUUAUAUUUAAAUGUAGACUUUUGACACUUUUAAAAAACAAAAAAAGACAAGAGAGAUGAAAACGUUUGAUUAUUUUCUCAGUGUAUUUUUGUACAACAGAGGAUUGAGCAUCA
B3: chr15:93024873:93024975:+|3pUTR|ENSG00000173575|unk|FALSE|unique (ssRNA)
RNA: GGGAGUUCUACAGUCCGACGAUCGGUCCAGCUCUGAUUCGGGUCACCACUCCUGCACUUUGGCACCCCAUCCCAUUCCAGCCUAGUUCUGGCCUCCCACUUUGACGGGCACUUGGAGGAGGAGCUGACUGUGUGUGUACCAGCCAACAGAGGAUUGAGCAUCA
B4: chr11:85958428:85958534:-|3pUTR|ENSG00000073921|unk|FALSE|unique (ssRNA)
RNA: GGGAGUUCUACAGUCCGACGAUCAGAAACAAUAACUGAAAUUAACUUUUCUUUUUUUAAAAAAAAUUAUAUUCAGUUUGCAGUAGACAUUCCUUAAGUAUUUGUAUUUAUUUAUGAUUAUCAAUUUUACAUAACAUUAAUAUUCAACAGAGGAUUGAGCAUCA
B5: chr17:44253117:44253371:-|CDS|ENSG00000004939|control|control|control (ssRNA)
RNA: GGGAGUUCUACAGUCCGACGAUCCAAACCUGAGCGCAAGAUGGUCAAGGGCUCCGGCUUCCACCUGGACCUGCUGCUGGUAGUAGGCAUGGGUGGGGUGGCCGCCCUCUUUGGGAUGCCCUGGCUCAGUGCCACCACCGUGCGCAACAGAGGAUUGAGCAUCA
B6: chr1:114568131:114568247:-|CDS|ENSG00000116752|unk|total|mutant (ssRNA)
RNA: GGGAGUUCUACAGUCCGACGAUCUUCCCGUUGGGUAUCCCUGGUCAGUAAGAAUUAUGAGAUUGAACGGACUAUUGUUCAGCCCGAAAAUGAAAUCUAUCAAAUUAAGCAGCAACAUGGAGAGGCAAACAAAGAAAACAUCCGCAACAGAGGAUUGAGCAUCA
B7: chr19:4839056:4839157:-|3pUTR|ENSG00000105355|msi1|total|mutant (ssRNA)
RNA: GGGAGUUCUACAGUCCGACGAUCUCUAUAAUGCAGCUGUGCUCUGGAGUCCUCAACCCGGGGCUCAUUUCAAACUUAUUUUCCCGCCACUCCUCCCAGCUCUUCUGUGCUGUCCACUUGGGAAGCUAAGGCUCUCAAAACGGGCAACAGAGGAUUGAGCAUCA
B8: ENSG00000070961:be:win_3401|CDS|ENSG00000070961|bound_else_gene|NA|bound_elsewhere_windowed (ssRNA)
RNA: GGGAGUUCUACAGUCCGACGAUCAACCGGAAUCAAGAAGUUCGAUUCACAACUUUAUGACACAUCCUGAGUUUAGGAUAGAAGAUUCAGAGCCUCAUAUCCCCCUUAUUGAUGACACUGAUGCCGAAGAUGAUGCUCCUACAACAACAGAGGAUUGAGCAUCA
B9: chr17:55392621:55394333:-|three_prime_utr|ENSG00000108960|control|control|control (ssRNA)
RNA: GGGAGUUCUACAGUCCGACGAUCACUGUGAAAGUAUAAAGGCUGUGUUCUGGAAUUUUCUGCCUCACAGCAAAUAAAUAAGGUAGUGAAUUAAUUAUUCAUUCCAUUCCACUAUCAUGAAGGACUCUGAAUAGACUUGGCCAACAACAGAGGAUUGAGCAUCA
B10: chr15:60490033:60490134:-|3pUTR|ENSG00000069667|unk|total|mutant (ssRNA)
RNA: GGGAGUUCUACAGUCCGACGAUCUGCUGGAUUUGGGACAUGCUUUUCUCUUUAAAUACAUAAUAUCAUUAUAUAAAUUAUUCCCGAGUGUAUUUAAUCCGGAUAAAAUUACUUCCUCCGUAUGGAUAUUUGACAUCUACCGGGCAACAGAGGAUUGAGCAUCA
B11: ENSG00000135299:stop:overlap|stop_codon|ENSG00000135299|stop_codon|NA|stop_codon (ssRNA)
RNA: GGGAGUUCUACAGUCCGACGAUCACAUUAAAAGUUUAGAAGAGGAACUUGCCAAACUAAGGACUAGGGUGCAGAAGGAAAAUUAGCACCAAUAAAGAGGAAAUAUGAAAGGAUUCUUGAAGAUUUCCAGUUUUGCAACUGCAUCAACAGAGGAUUGAGCAUCA
B12: chr1:153948111:153948329:-|CDS|ENSG00000160741|control|control|control (ssRNA)
RNA: GGGAGUUCUACAGUCCGACGAUCCCUGGCCGGAGUGCCUGGCUUUGAGGUGUCAGCAGCUGGAUUGGAGCUAGGGCUUGGGCUAGAAGAUGAGCUGCGCAUGGAGCCACUGGGCCUGGAAGGGCUAAACAUGCUGAGUGACCCCAACAGAGGAUUGAGCAUCA
B13: chr5:40972473:40972581:+|CDS|ENSG00000112936|unk|total|mutant (ssRNA)
RNA: GGGAGUUCUACAGUCCGACGAUCAAAACCUUUCUACACAGUUGGUGAGAAGGUGACUGUUUCCUGUUCAGGUGGCAUGUCCUCCGAAGGUCCUUCAGCAUUUCUCUGUGGCUCCAGCCUUAAGUGGAGUCCUGAGAUGAAGAACAACAGAGGAUUGAGCAUCA
B14: chr6:105100707:105100870:-|3pUTR|ENSG00000112276|msi1|FALSE|unique (ssRNA)
RNA: GGGAGUUCUACAGUCCGACGAUCUGAGAUAUAUAUUUUCACAGUCUUUUCUAGAUAUAUUAUUGUUUUAACUUAACAAAUCUUAGCAAUCUCUCAAUGCCUUUUCACUUAUUUUUUUCCAAGUUAUGAUUCUUUUUCCUCACACAACAGAGGAUUGAGCAUCA

Biological target: T1, UNK ZnF1-6 (called full-length)
Assay: nsRBNS (natural sequence RNA bind-n-seq); RBNS binding buffer (assumed for nsRBNS): 25 mM Tris pH 7.5, 150 mM KCl, 3 mM MgCl2, 0.01% Triton X-100, 500 ug/ml BSA, 20 U/ml SUPERase-In, 4 C; UNK is unkempt and MSI1 is Musashi-1; names of the RNAs are library labels; protein concentration not given here; high values mean tight binding

Q: B1 was tested. Which binding signal did it give?
A: 2.3 enrichment R

Q: How did the binding signal turn out when B2 was run?
A: 5.72 enrichment R

Q: With B3 as the binder, how does the binding signal read?
A: 4.71 enrichment R

Q: Which binding signal does the source give for B4 here?
A: 2.18 enrichment R

Q: How did the binding signal turn out when B5 was run?
A: 0.5 enrichment R

Q: How did the binding signal turn out when B6 was run?
A: 0.717 enrichment R

Q: How did the binding signal turn out when B7 was run?
A: 0.812 enrichment R

Q: For B8, which binding signal is on record?
A: 0.45 enrichment R

Q: How did the binding signal turn out when B9 was run?
A: 0.43 enrichment R

Q: B10 was tested. Which binding signal did it give?
A: 1.93 enrichment R

Q: With B11 as the binder, how does the binding signal read?
A: 0.451 enrichment R

Q: For B12, which binding signal is on record?
A: 0.883 enrichment R

Q: For B13, which binding signal is on record?
A: 0.449 enrichment R

Q: With B14 as the binder, how does the binding signal read?
A: 18.7 enrichment R
